Results taken from the supplement of paper PMC11880418.
Structures can show the parent of a compound that is named as a salt. This is one part of the list. The data scatter; read single values as rough.

The compounds below were run on SUM159 (assay: ALDHbr (CSC) cell proportion score relative to DMSO vehicle (ratio to DMSO); breast (SUM159) / gastric (MKN45) / pancreatic (PANC1) / colon cancer lines; ALDHbr cells have high ALDH activity and are rich in cancer stem cells (CSC); higher = more CSC (ALDHbr) cells remaining). Conditions: 10 µM; 72 h.
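Also: High-content imaging of ALDEFLUOR-stained cells with Hoechst-labelled nuclei in 384-well plates, triplicate wells, scored as Z-score against 0.1% DMSO vehicle, negative meaning fewer ALDHbr cells.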

SMILES | ALDHbr
Cc1nccn1CC1CCc2c(c3ccccc3n2C)C1=O (configuration not stated) [Ondansetron Hydrochloride] | 0.847
CCCN(CCC)C(=O)C(CCC(=O)O)NC(=O)c1ccccc1 (configuration not stated) [Proglumide] | 0.961
CN[C@@H]1[C@@H](O)[C@@H](O[C@@H]2[C@@H](O)[C@H](O[C@H]3OC(CN)=CC[C@H]3N)[C@@H](N)C[C@H]2N)OC[C@]1(C)O [Sisomicin sulfate] | 1.06
CO[C@@]1(NC(=O)C(C(=O)O)c2ccc(O)cc2)C(=O)N2C(C(=O)O)=C(CSc3nnnn3C)CO[C@@H]21 (some centres not stated) [Moxalactam disodium salt] | 0.653
NC[C@@H]1O[C@H](O[C@H]2[C@@H](O)[C@H](O[C@@H]3[C@@H](O)[C@H](N)C[C@H](N)[C@H]3O[C@H]3O[C@H](CN)[C@@H](O)[C@H](O)[C@H]3N)O[C@@H]2CO)[C@H](N)[C@@H](O)[C@@H]1O [Neomycin sulfate] | 1.14
CC[C@@H](CO)NCCN[C@@H](CC)CO [Ethambutol dihydrochloride] | 1.07
CCOc1ccc(Cc2nccc3cc(OCC)c(OCC)cc23)cc1OCC [Ethaverine hydrochloride] | 1.53
CC(C)NCC(O)COc1ccc(CCOCC2CC2)cc1 (configuration not stated) [Betaxolol hydrochloride] | 0.864
Cc1cn[nH]c1 [Fomepizole] | 1.07
CCCCCCCN(CC)CCCC(O)c1ccc(NS(C)(=O)=O)cc1 (configuration not stated) [Ibutilide fumarate] | 1.25
COc1ccccc1N1CCN(CCCNc2cc(=O)n(C)c(=O)n2C)CC1 [Urapidil hydrochloride] | 1.6
NC[C@H]1O[C@H](O[C@H]2[C@H](O[C@@H]3O[C@H](CO)[C@@H](O)[C@H]3O)[C@@H](O)[C@H](N)C[C@@H]2N)[C@H](N)[C@@H](O)[C@@H]1O [Ribostamycin sulfate salt] | 0.98
O=C(O[C@@H]1C[C@@H]2C[C@H]3C[C@H](C1)N2CC3=O)c1c[nH]c2ccccc12 [Dolasetron mesilate] | 1.3
CNCCC(Oc1ccccc1OC)c1ccccc1 (configuration not stated) [Nisoxetine hydrochloride] | 0.982
CCN1CCC[C@H]1CNC(=O)c1c(OC)ccc(Br)c1OC [Remoxipride Hydrochloride] | 0.716
COc1cc(NC(C)CCCN)c2ncccc2c1 (configuration not stated) [Primaquine diphosphate] | 1.3
Cc1cc2c(cc1S(N)(=O)=O)S(=O)(=O)CCC2 [Meticrane] | 0.844
Nc1nc(=O)[nH]cc1F [Flucytosine] | 1.27
COc1ccccc1O [Guaiacol] | 0.878
NS(=O)(=O)c1cc2c(cc1Cl)NC(CC1CCCC1)NS2(=O)=O (configuration not stated) [Cyclopenthiazide] | 0.943
C[C@@H]1CCC[C@H](C)N1NC(=O)c1ccc(Cl)c(S(N)(=O)=O)c1 [Clopamide] | 1.21
CC1(C)S[C@@H]2[C@H](NC(=O)Cc3ccccc3)C(=O)N2[C@H]1C(=O)O [Benzylpenicillin sodium] | 1.04
CCc1ccc(CCOc2ccc(CC3SC(=O)NC3=O)cc2)nc1 (configuration not stated) [Pioglitazone] | 0.778
CO[C@H]1/C=C/O[C@@]2(C)Oc3c(C)c(O)c4c(O)c(c(/C=N/N5CCN(C)CC5)c(O)c4c3C2=O)NC(=O)/C(C)=C\C=C\[C@H](C)[C@H](O)[C@@H](C)[C@@H](O)[C@@H](C)[C@H](OC(C)=O)[C@@H]1C [Rifampicin] | 0.811
CS(=O)(=O)Nc1ccc([N+](=O)[O-])cc1Oc1ccccc1 [Nimesulide] | 0.924
CCCCC1C(=O)N(c2ccccc2)N(c2ccc(O)cc2)C1=O (configuration not stated) [Oxyphenbutazone] | 0.879
COc1ccc2[nH]c([S+]([O-])Cc3ncc(C)c(OC)c3C)nc2n1 (configuration not stated) [Tenatoprazole] | 1.1
